Assay results: the supplement of paper PMC10369915
Some of the results follow. Rule as the data show it: active = 3.2 or more and inactive = the rest. Most of these values are background signal.

What follows are binders tested against SHP2 C-SH2 domain E139D (assay: enrichment score (SH2-bound / input frequency) (ratio); bacterial display of known human phosphotyrosine sites (pTyr-Var adds point mutants) read by sequencing; higher = stronger binding; tyrosines were phosphorylated by kinases first). Conditions: peptide library: pTyr-Var.
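Also: displayed peptides selected on beads carrying the immobilized SH2 domain, with library peptides lacking any tyrosine serving as negative controls.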

Enrichment score, inactive:
NFGTNYRVGSS [CPO_Y278_K273N_YF] 0.737
KSLFHHRQYSA [CPS1_Y1491_Y1491H] 0.853
KVPAIYGVGTR [CPS1_Y162_D165G] 0.756
AGAKTYKMSMA [CPS1_Y309] 0.731
MIRSAYALRGL [CPS1_Y590_G593R] 0.724
WKEIEYEVVRD [CPS1_Y634] 0.886
WKEREYEVVRD [CPS1_Y634_I632R] 0.886
IEKLTYIDKWF [CPS1_Y872] 0.659
DKWFLYKMRDI [CPS1_Y879] 0.532
VIESSYQVAKA [CPT1B_Y534] 0.495
VIKSSYQVAKA [CPT1B_Y534_E531K] 1.13
NTEGGYCCICA [CRELD1_Y328_R329C] 0.846
LSQAKYQIRYR [CRLF1_Y272_F268S] 0.579
QYPDVYAREEV [CRX_Y67] 0.66
QYPDIYAREEV [CRX_Y67_V66I] 0.865
TLGPFYPSRLF [CRYAA_Y18] 1.17
TISPYYRQSLF [CRYAA_Y48] 0.794
TISPYYCQSLF [CRYAA_Y48_R49C] 1.12
TWSSSYRSDRL [CRYBB1_Y131] 0.843

What follows are binders tested against SHP2 C-SH2 domain wild-type in the same assay as above. Conditions: peptide library: pTyr-Var.

Enrichment score, inactive:
NFGTNYRVGSS [CPO_Y278_K273N_YF] 0.806
KSLFHHRQYSA [CPS1_Y1491_Y1491H] 0.687
KVPAIYGVGTR [CPS1_Y162_D165G] 0.716
AGAKTYKMSMA [CPS1_Y309] 0.651
MIRSAYALRGL [CPS1_Y590_G593R] 0.683
WKEIEYEVVRD [CPS1_Y634] 0.799
WKEREYEVVRD [CPS1_Y634_I632R] 0.913
IEKLTYIDKWF [CPS1_Y872] 0.715
DKWFLYKMRDI [CPS1_Y879] 0.631
VIESSYQVAKA [CPT1B_Y534] 0.494
VIKSSYQVAKA [CPT1B_Y534_E531K] 0.693
NTEGGYCCICA [CRELD1_Y328_R329C] 0.735
LSQAKYQIRYR [CRLF1_Y272_F268S] 0.78
QYPDVYAREEV [CRX_Y67] 0.46
QYPDIYAREEV [CRX_Y67_V66I] 0.856
TLGPFYPSRLF [CRYAA_Y18] 0.895
TISPYYRQSLF [CRYAA_Y48] 0.709
TISPYYCQSLF [CRYAA_Y48_R49C] 1.07
TWSSSYRSDRL [CRYBB1_Y131] 0.727

These binders were tested against SHP2 N-SH2 domain L43F in the same assay as above. Conditions: peptide library: pTyr-Var.

Enrichment score, inactive:
NFGTNYRVGSS [CPO_Y278_K273N_YF] 0.751
KSLFHHRQYSA [CPS1_Y1491_Y1491H] 0.541
KVPAIYGVGTR [CPS1_Y162_D165G] 0.706
AGAKTYKMSMA [CPS1_Y309] 0.749
MIRSAYALRGL [CPS1_Y590_G593R] 0.613
WKEIEYEVVRD [CPS1_Y634] 0.748
WKEREYEVVRD [CPS1_Y634_I632R] 0.771
IEKLTYIDKWF [CPS1_Y872] 0.63
DKWFLYKMRDI [CPS1_Y879] 0.575
VIESSYQVAKA [CPT1B_Y534] 0.621
VIKSSYQVAKA [CPT1B_Y534_E531K] 0.931
NTEGGYCCICA [CRELD1_Y328_R329C] 0.933
LSQAKYQIRYR [CRLF1_Y272_F268S] 0.591
QYPDVYAREEV [CRX_Y67] 0.532
QYPDIYAREEV [CRX_Y67_V66I] 1.03
TLGPFYPSRLF [CRYAA_Y18] 1.15
TISPYYRQSLF [CRYAA_Y48] 0.721
TISPYYCQSLF [CRYAA_Y48_R49C] 1.55
TWSSSYRSDRL [CRYBB1_Y131] 0.721

Each binder was assayed against SHP2 N-SH2 domain T42A in the same assay as above. Conditions: peptide library: pTyr-Var.

Enrichment score, inactive:
NFGTNYRVGSS [CPO_Y278_K273N_YF] 0.638
KSLFHHRQYSA [CPS1_Y1491_Y1491H] 0.582
KVPAIYGVGTR [CPS1_Y162_D165G] 0.747
AGAKTYKMSMA [CPS1_Y309] 0.843
MIRSAYALRGL [CPS1_Y590_G593R] 0.513
WKEIEYEVVRD [CPS1_Y634] 0.759
WKEREYEVVRD [CPS1_Y634_I632R] 0.846
IEKLTYIDKWF [CPS1_Y872] 0.781
DKWFLYKMRDI [CPS1_Y879] 0.574
VIESSYQVAKA [CPT1B_Y534] 0.557
VIKSSYQVAKA [CPT1B_Y534_E531K] 0.742
NTEGGYCCICA [CRELD1_Y328_R329C] 0.904
LSQAKYQIRYR [CRLF1_Y272_F268S] 0.462
QYPDVYAREEV [CRX_Y67] 0.514
QYPDIYAREEV [CRX_Y67_V66I] 0.82
TLGPFYPSRLF [CRYAA_Y18] 1.16
TISPYYRQSLF [CRYAA_Y48] 0.717
TISPYYCQSLF [CRYAA_Y48_R49C] 0.909
TWSSSYRSDRL [CRYBB1_Y131] 0.828

These binders were tested against SHP2 N-SH2 domain T52S in the same assay as above. Conditions: peptide library: pTyr-Var.

Enrichment score, inactive:
NFGTNYRVGSS [CPO_Y278_K273N_YF] 0.674
KSLFHHRQYSA [CPS1_Y1491_Y1491H] 0.699
KVPAIYGVGTR [CPS1_Y162_D165G] 0.72
AGAKTYKMSMA [CPS1_Y309] 0.792
MIRSAYALRGL [CPS1_Y590_G593R] 0.62
WKEIEYEVVRD [CPS1_Y634] 0.707
WKEREYEVVRD [CPS1_Y634_I632R] 0.749
IEKLTYIDKWF [CPS1_Y872] 1.17
DKWFLYKMRDI [CPS1_Y879] 0.493
VIESSYQVAKA [CPT1B_Y534] 0.593
VIKSSYQVAKA [CPT1B_Y534_E531K] 0.708
NTEGGYCCICA [CRELD1_Y328_R329C] 0.85
LSQAKYQIRYR [CRLF1_Y272_F268S] 0.696
QYPDVYAREEV [CRX_Y67] 0.515
QYPDIYAREEV [CRX_Y67_V66I] 0.708
TLGPFYPSRLF [CRYAA_Y18] 1.14
TISPYYRQSLF [CRYAA_Y48] 0.856
TISPYYCQSLF [CRYAA_Y48_R49C] 1.14
TWSSSYRSDRL [CRYBB1_Y131] 0.825

Each binder was assayed against SHP2 N-SH2 domain wild-type in the same assay as above. Conditions: peptide library: pTyr-Var.

Enrichment score, inactive:
NFGTNYRVGSS [CPO_Y278_K273N_YF] 0.658
KSLFHHRQYSA [CPS1_Y1491_Y1491H] 0.621
KVPAIYGVGTR [CPS1_Y162_D165G] 0.835
AGAKTYKMSMA [CPS1_Y309] 0.933
MIRSAYALRGL [CPS1_Y590_G593R] 0.593
WKEIEYEVVRD [CPS1_Y634] 0.882
WKEREYEVVRD [CPS1_Y634_I632R] 0.647
IEKLTYIDKWF [CPS1_Y872] 0.772
DKWFLYKMRDI [CPS1_Y879] 0.772
VIESSYQVAKA [CPT1B_Y534] 0.662
VIKSSYQVAKA [CPT1B_Y534_E531K] 0.822
NTEGGYCCICA [CRELD1_Y328_R329C] 0.896
LSQAKYQIRYR [CRLF1_Y272_F268S] 0.865
QYPDVYAREEV [CRX_Y67] 0.711
QYPDIYAREEV [CRX_Y67_V66I] 0.982
TLGPFYPSRLF [CRYAA_Y18] 1
TISPYYRQSLF [CRYAA_Y48] 0.8
TISPYYCQSLF [CRYAA_Y48_R49C] 1.17
TWSSSYRSDRL [CRYBB1_Y131] 0.902
